B1: UACCCAU (DNA:RNA)
RNA: GGGAGACCGGAAUUCAGAUUGUCCUACCCAUUUAAAUCCCGUCGUAGCCACCA
DNA 1: CAATCTGAATTCCGGTCTCCC
DNA 2: TGGTGGCTACGACGGGATT
B2: UGAUUUA (DNA:RNA)
RNA: B1 RNA with A26G, C27A, C28U, C29U, A30U, U31A
DNA 1: CAATCTGAATTCCGGTCTCCC
DNA 2: TGGTGGCTACGACGGGATT
B3: UUUUUCU (DNA:RNA)
RNA: B1 RNA with A26U, C27U, C28U, C29U, A30C
DNA 1: CAATCTGAATTCCGGTCTCCC
DNA 2: TGGTGGCTACGACGGGATT
B4: UCGAUAC (DNA:RNA)
RNA: B1 RNA with A26C, C27G, C28A, C29U, U31C
DNA 1: CAATCTGAATTCCGGTCTCCC
DNA 2: TGGTGGCTACGACGGGATT
B5: CGAAAGU (DNA:RNA)
RNA: B1 RNA with U25C, A26G, C27A, C28A, C29A, A30G
DNA 1: CAATCTGAATTCCGGTCTCCC
DNA 2: TGGTGGCTACGACGGGATT
B6: GUGUACA (DNA:RNA)
RNA: GGGAGACCGGAAUUCAGAUUGUCCGUGUACAUUAAAUCCCGUCGUAGCCACCA
DNA 1: CAATCTGAATTCCGGTCTCCC
DNA 2: TGGTGGCTACGACGGGATT
B7: AUGUUUC (DNA:RNA)
RNA: B6 RNA with G25A, A29U, C30U, A31C
DNA 1: CAATCTGAATTCCGGTCTCCC
DNA 2: TGGTGGCTACGACGGGATT
B8: GGGUGGG (DNA:RNA)
RNA: B6 RNA with U26G, A29G, C30G, A31G
DNA 1: CAATCTGAATTCCGGTCTCCC
DNA 2: TGGTGGCTACGACGGGATT
B9: CGUACAG (DNA:RNA)
RNA: B1 RNA with U25C, A26G, C27U, C28A, U31G
DNA 1: CAATCTGAATTCCGGTCTCCC
DNA 2: TGGTGGCTACGACGGGATT
B10: GAGAUUG (DNA:RNA)
RNA: B6 RNA with U26A, U28A, A29U, C30U, A31G
DNA 1: CAATCTGAATTCCGGTCTCCC
DNA 2: TGGTGGCTACGACGGGATT
B11: UACACGA (DNA:RNA)
RNA: B1 RNA with C28A, A30G, U31A
DNA 1: CAATCTGAATTCCGGTCTCCC
DNA 2: TGGTGGCTACGACGGGATT
B12: CACAAUA (DNA:RNA)
RNA: B6 RNA with G25C, U26A, G27C, U28A, C30U
DNA 1: CAATCTGAATTCCGGTCTCCC
DNA 2: TGGTGGCTACGACGGGATT
B13: CCCGUUG (DNA:RNA)
RNA: B1 RNA with U25C, A26C, C28G, C29U, A30U, U31G
DNA 1: CAATCTGAATTCCGGTCTCCC
DNA 2: TGGTGGCTACGACGGGATT
B14: AAAAAAU (DNA:RNA)
RNA: B1 RNA with U25A, C27A, C28A, C29A
DNA 1: CAATCTGAATTCCGGTCTCCC
DNA 2: TGGTGGCTACGACGGGATT
B15: CGCCCAC (DNA:RNA)
RNA: B1 RNA with U25C, A26G, U31C
DNA 1: CAATCTGAATTCCGGTCTCCC
DNA 2: TGGTGGCTACGACGGGATT
B16: AGGCCGC (DNA:RNA)
RNA: B1 RNA with U25A, A26G, C27G, A30G, U31C
DNA 1: CAATCTGAATTCCGGTCTCCC
DNA 2: TGGTGGCTACGACGGGATT
B17: GGCCCAG (DNA:RNA)
RNA: B1 RNA with U25G, A26G, U31G
DNA 1: CAATCTGAATTCCGGTCTCCC
DNA 2: TGGTGGCTACGACGGGATT
B18: CACCUAU (DNA:RNA)
RNA: B1 RNA with U25C, C29U
DNA 1: CAATCTGAATTCCGGTCTCCC
DNA 2: TGGTGGCTACGACGGGATT
B19: UGUUUUC (DNA:RNA)
RNA: B6 RNA with G25U, U26G, G27U, A29U, C30U, A31C
DNA 1: CAATCTGAATTCCGGTCTCCC
DNA 2: TGGTGGCTACGACGGGATT
B20: AAUCCUC (DNA:RNA)
RNA: B1 RNA with U25A, C27U, A30U, U31C
DNA 1: CAATCTGAATTCCGGTCTCCC
DNA 2: TGGTGGCTACGACGGGATT

Residue numbers refer to the chain shown, from its start. The list shows a part of the results.

The target in this assay is T1, RBFOX1 RRM (Homo sapiens, UniProt Q9NWB1 109-208).
T1 sequence: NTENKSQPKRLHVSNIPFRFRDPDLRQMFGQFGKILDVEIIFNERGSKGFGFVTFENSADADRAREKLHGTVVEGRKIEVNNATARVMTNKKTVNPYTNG
In words: EMSA; HiTS-Eq, 1 nM pool, 10 min; buffer printed only for the single-RNA assays: 10 mM Tris pH 7.5, 150 mM NaCl, 3.4 mM EDTA, 0.001% NP-40, 30 C. As to conditions: tags: His6 N-terminal (pET28a); label: 5' 32P. In a few lines:
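A pool of RNA with 7 randomized nucleotides, 5′-radiolabelled and with DNA-annealed flanks, was equilibrated at 1 nM for 10 min in 50 µL with purified RbFox RRM, wild type or mutant, across increasing protein concentrations. Free RNA was separated by 8% native PAGE, excised, reverse-transcribed, barcoded by PCR and sequenced. Relative association constants were obtained from read-count changes of each RNA species versus the control reaction and normalised to the cognate motif.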
For B1, the binding signal is 0.00118 KA relative to UGCAUGU. The value for B2 was 0.0154 KA relative to UGCAUGU; that for B3 was 0.0117 KA relative to UGCAUGU; that for B4 was 0.0082 KA relative to UGCAUGU.

In the case of B5, the binding signal was 0.0115 KA relative to UGCAUGU. For B6, the binding signal was 0.00903 KA relative to UGCAUGU. In the case of B7, the binding signal is 0.0159 KA relative to UGCAUGU. For the molecule B8, the binding signal is 0.0201 KA relative to UGCAUGU. Take B9: the binding signal was 0.00596 KA relative to UGCAUGU. The result for B10 reads 0.019 KA relative to UGCAUGU; that for B11, 0.00764 KA relative to UGCAUGU.

Regarding B12, the binding signal is 0.00108 KA relative to UGCAUGU. The value for B13 was 0.0197 KA relative to UGCAUGU. The result for B14 reads 0.000327 KA relative to UGCAUGU. The value for B15 was 0.00346 KA relative to UGCAUGU; that for B16 was 0.0103 KA relative to UGCAUGU. For the molecule B17, the binding signal is 0.00726 KA relative to UGCAUGU. The value for B18 was 0.000316 KA relative to UGCAUGU. Regarding B19, the binding signal was 0.0237 KA relative to UGCAUGU. The value for B20 was 0.00109 KA relative to UGCAUGU.

For the origin of these results see article PMC9911399, “Two distinct binding modes provide the RNA-binding protein RbFox with extraordinary sequence specificity”.
